Earlier results as cited in publication PMC13421293 (Thrombosis and Haemostasis, 2025).

System: platelet P2Y12 receptor
Design: method as in PMID 20091161, PMID 17980251
Settings: metabolite compared with ticagrelor; cited from earlier work

## CCCSc1nc(N[C@@H]2C[C@H]2c2ccc(F)c(F)c2)c2nnn([C@@H]3C[C@H](O)[C@@H](O)[C@H]3O)c2n1 [AR-C124910XX]
  inhibition potency of the platelet P2Y12 receptor: the same
